Laboratory results reported in PubChem BioAssay (NCI).
Several values for one entry are separate records, joined by “and”; a condition that tells them apart may be missing. Equal entries are not always repeated.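 How tested: cells in 96-well plates exposed to compound for 48 hours at five concentrations. Abbreviation: GI50, concentration required for 50% inhibition of growth. TGI: total growth inhibition.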 Numbered stars: 1 amine (or outer) side, 2 acyl side, 3 side chain; on linkers, the order of the positions; unused ones are H or OH. Bridge positions count the residues as written; N and C are the ends. Square brackets hold non-standard residues; d marks the D form. Peptide text beside a SMILES is read from it. I, II: the chains in the order shown. Actinocin(9to1) = Cc1c2oc3c(C)ccc(C(=O)[*:1])c3nc-2c(C(=O)[*:2])c(N)c1=O; NMeV = CN[CH](C(=O)O)C(C)C; Sar = CNCC(=O)O

system: NCI-H322M lung; assay: NCI-60 cell line screen, 48 h

Row | Structure (SMILES) | TGI | GI50
1 | CCCCc1ccc(Nc2ncc3[nH]cnc3n2)cc1 | > 100 µM | 
2 | COc1cc(CC2c3cc(OC)c(OC)cc3CCN2C)c(Oc2cc3c(cc2OC)-c2c(O)c(OC)cc4c2C(C3)N(C)CC4)cc1OC (centres undefined) | 45.2 µM | 
3 | COc1cccc(/C=C/c2cnc3ccccc3n2)c1OC | > 100 µM | 
4 | Cc1ccc2c(O)c(O)cc(NC(C)CCCN)c2n1 (centres undefined) | > 100 µM | 13.5 µM
5 | COc1cccc(/C=N/[N-]C(N)=O)c1[O-].[Ni+2].[OH3+].c1cnc2c(c1)ccc1cccnc12 | > 100 µM | 
6 | CCCCOP1(=O)C=C(C)C(=C(Cl)Cl)C(C)=C1 (centres undefined) | 54.8 µM | 
7 | O=C(c1ccccc1)c1ccc2nc(-c3c(Cl)c(Cl)c(Cl)c(Cl)c3C(=O)N/N=C/c3ccccc3)[nH]c2c1 | > 100 µM | 
8 | CC(CO)C1C[C@H](O)[C@@]2(C)CC(=O)C=C(CO)[C@@H]2C1 (some centres undefined) | > 100 µM | 
9 | C1CCC(OC2CSC2)OC1 (centres undefined) | > 100 µM | 
10 | CC(C)(C)C1(COC(=O)c2ccc(N)cc2)COC1 | > 100 µM | 
11 | COc1cc(/C=C2\CN(C)C/C(=C\c3cc(CN4CCCCC4)c(O)c(OC)c3)C2=O)cc(CN2CCCCC2)c1O | 12.5 µM | 3.2 µM
12 | C=CC(=O)N[C@H]1CCOC[C@H]1Nc1ncc2cc(-c3c(Cl)c(OC)cc(OC)c3Cl)ccc2n1 | > 100 µM | 31.1 µM
13 | Nc1ccccc1N/C=C\C(=O)C(Cl)(Cl)Cl | > 100 µM | 
14 | Cc1[nH]c2ccccc2c1C=Nc1ccc(N=Cc2c(C)[nH]c3ccccc23)cc1 | > 100 µM | 
15 | Cc1c(C)[n+](=O)c(C)c(C)n1[O-] | > 100 µM | > 100 µM
16 | c1ccc(-n2nnnc2-c2cccc3ccccc23)cc1 | > 100 µM | 9.64 µM
17 | COC(=O)/C=C1\CCC(C)(C(=O)NS(=O)(=O)c2ccc(C)cc2)C1(C)C (centres undefined) | > 100 µM | 
18 | N#C[S-].[Nd+3].c1ccc(-c2ccccn2)nc1.c1ccc(-c2ccccn2)nc1.c1ccc(-c2ccccn2)nc1 | > 100 µM | 3.82 µM
19 | O=C1c2c(nc3ccccc3c2-c2ccccc2)CN1Nc1ccccn1 | > 100 µM | 
20 | CC(=O)O[C@H]1CCC(C)=CCC[C@@]2(C)C(CC[C@@H]2[C@@H](C)/C=C/C(C)C)c2ccc(cc2C(=O)O)C1 (some centres undefined) | 17.6 µM | 
21 | COC(=O)C1(F)C(=O)NC(=O)NC1O (centres undefined) | > 100 µM | 
22 | NC(=O)C(c1ccccc1)N1CCOCC1 (centres undefined) | > 100 µM | 
23 | Cc1ccc(-c2cc(C3=CC(=O)C=CC3=O)n(-c3ccc(S(N)(=O)=O)cc3)n2)cc1 | > 100 µM | 13.2 µM

Row | Structure (SMILES) | TGI | GI50
24 | O=c1c(C=Nc2ccc([N+](=O)[O-])cc2)c(O)n(-c2ccccc2)c(=O)n1-c1ccccc1 | > 100 µM | 
25 | O=C1/C(=C/c2ccccc2[N+](=O)[O-])N=C(c2ccccc2)N1C1Nc2cc3c(cc2S1)NC(N1C(=O)/C(=C/c2ccccc2[N+](=O)[O-])N=C1c1ccccc1)S3 (centres undefined) | > 100 µM | 
26 | CCN(c1ccc(Br)cc1)c1c(Br)c(=O)nc2ccccn12 | > 100 µM | 
27 | O=C(Nc1ccc(Cl)cc1)c1cc(-c2ccc(Cl)cc2)c2sc(=O)[nH]c2n1 | 9.72 µM | 2.81 µM
28 | C=CCSC1=N/C(=C\c2ccccc2)C(=O)N1CC=C | > 100 µM | 
29 | O=[Se](=O)c1ccccc1.O=[Se](=O)c1ccccc1.[Cu] | 29.4 µM | 15.6 µM
30 | C/C(=N\N=C(/[Se])N1CC2CCC(CC2)C1)c1ccccn1 | 2.92 µM | 
31 | O=C1C(Br)=CC2(C=C1Br)CCNC1=C2C(=O)c2cccnc2C1=O | 34.3 µM | 
32 | COc1cc(/C=C2\N=C(c3ccccc3)N(c3nc4c(OC)ccc(OC)c4s3)C2=O)cc(OC)c1OC | > 100 µM | 
33 | COc1cc(-c2nc3sc4c(c3c(=O)[nH]2)CCCCCC4)cc(OC)c1OC | > 33.2 µM | 4.56 µM
34 | O=C(N/N=C/c1cc(Cl)cc(Cl)c1[O-])c1ccccc1O.O=C(N/N=C/c1cc(Cl)cc(Cl)c1[O-])c1ccccc1O.[Ni+2] | 7.22 µM | 0.646 µM
35 | CCN(CCCl)CCCNc1c2ccccc2nc2ccc(OC)cc12 |  | 320 µM
36 | Cc1cc(-c2nc3ccccc3s2)ccc1NC(=O)[C@H](C)N | 21.4 µM | 
37 | CSc1c(C#N)c(=O)[nH]c2n[nH]c(C)c12 | > 100 µM | 
38 | Oc1ccc(SCc2cc(O)c(O)c(O)c2)cc1 | > 100 µM | 
39 | O=C(O)c1cc(N=Cc2ccccc2O)cc(C(=O)O)c1 | > 100 µM | 
40 | NS(=O)(=O)c1cccc(N=Cc2c(O)[nH]c3ccccc23)c1 | > 25 µM | > 25 µM
41 | CCc1ccc2[nH]c(O)c(-c3[nH]c4ccccc4c3N=O)c2c1 | 19.3 µM | 
42 | COc1ccc2c(c1)N=C1CSC(c3ccccc3Cl)N1C2 (centres undefined) | 34.7 µM | 
43 | CC(=O)OC1(C)C(=O)OC1(C)C(C)=O (centres undefined) | > 100 µM | 
44 | Cc1cc(Nc2ncnc3ccc(NC4=NC(C)(C)CO4)cc23)ccc1Oc1ccn2ncnc2c1 | 42.5 µM and > 10 µM | 10.6 µM and > 10 µM
45 | Fc1ccc(N=NN2CCCC2)cc1 | > 100 µM | 
46 | O=C1NC2(CCCCC2)C2CCCCCC12 (centres undefined) | > 100 µM | 

Row | Structure (SMILES) | TGI | GI50
47 | O=C(O)c1ccc(N/C=C2\C(=O)c3ccccc3OC2O)cc1O (centres undefined) | > 150 µg/mL | 59.9 µg/mL
48 | C#Cc1c(C(N)=O)ncn1C1OC(COP(=O)(OCc2ccc([N+](=O)[O-])o2)N(C)CCCCCl)C(O)C1O (centres undefined) | > 100 µM | 28.9 µM
49 | COc1ccc(-c2ccc(-c3ccc(-c4ccc(C(=N)N)cc4)s3)s2)cc1OC | 21.2 µM | 5.49 µM
50 | COc1cc(/C=C2\CCC(CN(C)C)C2=O)ccc1OC(=O)c1ccccc1 (centres undefined) | 32.6 µM | 
51 | COc1ccc2c(c1)C(c1ccccc1Cl)=Nc1c(n[nH]c1C)N2 | > 25 µM | > 25 µM
52 | O=C1COc2ccc([N+](=O)[O-])cc2C(=O)C1 | > 10 µM | 
53 | O=[N+]([O-])c1ccc(N=Nc2c(O)c(S(=O)(=O)O)cc3cc(S(=O)(=O)O)ccc23)cc1 | > 100 µM | 
54 | CN1CC(C(=O)C2C(=O)c3ccccc3C2=O)C(=O)C(=O)C(C(=O)C2C(=O)c3ccccc3C2=O)C1 (centres undefined) | > 100 µM | 
55 | CCCNC(C#N)c1ccc(C(C#N)NCCC)cc1 (centres undefined) | > 100 µM | 
56 | COc1ccc(-c2c(N)n(-c3cccc(C(=O)O)c3)c(=O)c3cc([N+](=O)[O-])ccc23)cc1 | > 100 µM | 
57 | C=CCNC(=O)NC1=CSC2=NC(=O)C3(NN12)c1ccccc1-c1ccccc13 | > 10 µM | 
58 | CC(=O)O/N=C1/C(c2c(O)[nH]c3cc(Br)ccc23)=Nc2ccccc21 | 3.05 µM | 1.39 µM
59 | O=C(OCC1CO1)c1cccs1 (centres undefined) | > 100 µM | 
60 | O=C(C(=O)N1CC2C=CC1CC2)c1c[nH]c2ccccc12 (centres undefined) | > 100 µM | 
61 | COc1ccc(C(=O)c2cc3c(OC)c(OC)c(OC)cc3[nH]2)cc1 | > 100 µM | > 100 µM
62 | COc1cccc(N(CN2CC=CC2=O)C(C)=O)c1 | > 100 µM | 
63 | COc1ccc(N=N/C(=N/NC(=O)c2ccccc2)c2ccc(N(CCC#N)CCC#N)cc2C)cc1 | > 100 µM | 
64 | COc1ccc(-n2c3c(c4c(CN5CCOCC5)c(O)ccc42)CCc2ccccc2C3=O)cc1 | > 100 µM | > 100 µM
65 | O=Nc1ccc2ccccc2c1O | 39.2 µM | 20.3 µM
66 | C=C(c1ccc(C(=O)N(C)c2ccccc2N)cc1)C(C)N1C(=O)[C@H]2CCCN2C(=O)c2ccccc21 (some centres undefined) | > 100 µM | 76.3 µM
67 | [N-]=[N+]=CC(=O)OCC1SCCCS1 | > 100 µM | 
68 | CCSC1=C(C)N(C=NC(C)(C)C)CC1 | > 100 µM | 
69 | CSC1=C(C#N)C(=O)N(c2ccc(C)cc2)C(=S)C1C#N (centres undefined) | > 100 µM | 

Row | Structure (SMILES) | TGI | GI50
70 | O=C(CCl)N1c2ccccc2Sc2ccc3ccccc3c21 | 3.36 µM | 1.79 µM
71 | CCOC(=O)C1SC(=Nc2ccc(Cl)c(Cl)c2)N=C1C (centres undefined) | > 100 µM | 
72 | C=C(C)C(=O)[C@@]12C(=O)[C@@H](C)CC[C@H]1[C@H](C)C[C@@H]2C=C(C)C | > 100 µM | 
73 | NC1=NC(c2ccc(Cl)cc2)C2=C(N1)/C(=C/c1ccc(Cl)cc1)CCC2 (centres undefined) | > 100 µM | 31.3 µM
74 | Cc1c2oc3c(C)ccc(C(=O)NC4C(=O)NC(C(C)O)C(=O)N5CCCC5C(=O)N(C)CC(=O)N(C)C(C(C)C)C(=O)OC4C)c3nc-2c(C(=O)NC2C(=O)NC(C(C)O)C(=O)N3CCCC3C(=O)N(C)CC(=O)N(C)C(C(C)C)C(=O)OC2C)c(N)c1=O (centres undefined) (I: TTP[Sar][NMeV] / II: TTP[Sar][NMeV]; ester I:1-I:C, II:1-II:C; linker I:N-II:N via Actinocin(9to1); configuration not given here) | > 23.3 µM | 
75 | O=C(CCCCCCCCC(=O)N1C(=O)CC(=O)N(c2cccc(Cl)c2)C1=S)N1C(=O)CC(=O)N(c2cccc(Cl)c2)C1=S | 82.6 µM | 
76 | COC(=O)c1cc(C#N)[nH]c1-c1ccc(C)s1 | > 100 µM | 
77 | [N-]=[N+]=NCc1cccc(Nc2cc(=O)[nH]c(=O)[nH]2)c1 | > 100 µM | 
78 | N#CC1=C(N)NC(=O)NC12Nc1ccccc1S2 (centres undefined) | 37 µM | 14.3 µM
79 | CC1=CCC23C(C1)OC(Br)(C=CC2(C)O)C3(C)C (centres undefined) | > 100 µM | 
80 | NC(=O)C#CC(N)=O | 362 µM and > 100 µM | 
81 | C=CCC(N[C@H](CO)c1ccccc1)c1cn(C(=O)OCC)c2ccccc12 (some centres undefined) | 28.6 µM | 13.8 µM
82 | COc1ccc(Cl)cc1NC(=O)C(Br)C(Br)C(=O)O (centres undefined) | > 59.2 µM | 11.6 µM
83 | Cn1cc(-c2cnc3ccc4ccc(CS(=O)(=O)NCc5ccccn5)cc4c(=O)c3c2)cn1 | > 100 µM | 21.2 µM
84 | C#CC(F)(F)[C@]1(O)CC[C@H]2[C@@H]3CCC4=CC(=O)CCC4=C3[C@@H](c3ccc(C(C)=O)cc3)C[C@@]21C | > 100 µM | 26.5 µM
85 | Cc1ccc2c(c1)NC(=O)CC(c1ccccc1)=N2 | > 100 µM | 
86 | C/C(=N\NC(N)=S)C(CN(CC(C)C)CC(C)C)C(=O)Nc1ccc(C)cc1C (centres undefined) | > 100 µM | 
87 | CCOc1nc(-c2ccccc2)cc(-c2ccc(N3CCOCC3)cc2)c1C#N | > 100 µM | 
88 | O=C1C=C(Br)c2c(Br)sc(Br)c21 | 45 µM | 
89 | O=C(c1ccco1)c1c(C(F)(F)F)n([O-])c2ccccc2[n+]1=O | 21.8 µM | 5.64 µM
